Laboratory results: PubChem BioAssay AID1345083 (National Center for Advancing Translational Sciences (NCATS), 2018)
Screen size: about 94,000 compounds; about 6,200 (6.6%) were called active. Inconclusive means that the source gave no clear call. Such entries were picked first, then a sample of the others. The call rests on the fitted dose curve; in most records, active means well fitted inhibition curve with a large enough effect; inconclusive means small, poorly fitted or top-dose-only effect; inactive means flat fitted curve, though single readings scatter. Potencies of inconclusive entries are doubtful fits and often do not repeat.
Potency means the concentration at half of the fitted maximal effect; tags describe the fitted curve by direction and shape.

Test: Cytotoxic Profiling in HEK 293 Cell Line of Diverse Libraries Using Quantitative High-Throughput Screening; further: nearly all actives have a fitted effect of over 60% in size
Settings: HEK 293 viability, ATP luminescence (CellTiter-Glo), 48-72 h; series mostly up to 115 µM
Summary of the method: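 Luminescence from cellular ATP, measured with CellTiter-Glo, indicates HEK 293 viability. Cells plated at 250 cells/well are treated with compound for 48 or 72 hr at 37 degree Celsius before reagent addition.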
For `O=C1Nc2ccccc2CC12CCCCN2Cc1ccc(F)cc1` (configuration not stated), the Potency was active: 79.4 µM.
In the case of `COc1ccc(-c2cc(N3CCCN(C(=O)c4nn(C)c5ccccc45)CC3)n[nH]2)cc1`, the Potency is reported as inconclusive: 50.1 µM [inhibitor, partial curve, poor fit].
In the case of `C[S+](=O)([O-])c1ccc(-c2nnc3ccc(C(=O)NCc4cccc(C(F)(F)F)c4)cn23)cc1`, the Potency is reported as inconclusive: 44.7 µM [inhibitor, partial curve, poor fit].
In the case of `COc1ccccc1-n1cc(-c2ccnc(N3CC(n4cccn4)C3)n2)cn1`, the Potency is reported as inconclusive: 79.4 µM [inhibitor, partial curve, poor fit].
For `O=C(NCc1ccc(Br)cc1)c1nnn2c1COC(c1ccc(Cl)cc1)C2` (configuration not stated), the Potency was inconclusive: 79.4 µM [inhibitor, partial curve, poor fit].
In the case of `CN(c1ccccc1)c1cc(=O)c2ccnc(N3CCN(c4ccccn4)CC3)c2o1`, the Potency is reported as active: 35.5 µM.
For `Cc1cc(C)n(CC(=O)N2C[C@@H](COc3ccccc3)[C@H](C(N)=O)C2)n1`, the Potency was “inactive”.
For `CCC(=O)N1CCN(c2nc3c(s2)CC(C(=O)Nc2cccc(C)c2C)CC3)CC1` (configuration not stated), the Potency was active: 39.8 µM.
For `O=C(c1ccc(C(F)(F)F)cc1)N1CCc2nc(C3CC3)nc(-c3ccc(Cl)cc3)c2CC1`, the Potency was active: 28.2 µM.
With `Cc1noc(-c2ccc(S(=O)(=O)N3C[C@H](C4CC4)[C@@H](N)C3)o2)c1C` the Potency was inconclusive: 25.1 µM [inhibitor, full curve, poor fit].
With `CNc1nccc(N2CCC(CC(=O)O)CC2)n1` the Potency was “inactive”.
In the case of `CCOC(=O)C1(Cc2ccccc2F)CCCN(C(=O)c2ccc3ncccc3c2)C1` (configuration not stated), the Potency is reported as inconclusive: 44.7 µM [inhibitor, partial curve].
In the case of `CS(=O)(=O)NCCc1ccc(CC2CCN(C(=O)CC3CCCC3)CC2)cc1`, the Potency is reported as inconclusive: 35.5 µM [inhibitor, partial curve, poor fit].
In the case of `CCn1ccc(C(=O)N2CCCC(c3noc(COc4ccccc4F)n3)C2)n1` (configuration not stated), the Potency is reported as inconclusive: 79.4 µM [inhibitor, single point].
For `Cc1ccc(-c2cc3c(=O)n(CCNC(=O)Cc4cccc(F)c4)ccn3n2)c(C)c1`, the Potency was inconclusive: 79.4 µM [inhibitor, partial curve, poor fit].
For `O=C(CCc1ccc2c(c1)CN(C(=O)C1CC1)CCO2)NCc1cc(F)cc(F)c1`, the Potency was “inactive”.
For `O=C(Nc1cccc2ccccc12)O[C@@H]1CO[C@H]2[C@@H]1OC[C@@H]2n1nnnc1Sc1ccccc1`, the Potency was “inactive”.
In the case of `O=C(c1ccc(F)cc1)N1CCCC(C(=O)N2CCC(c3ccccc3)CC2)C1` (configuration not stated), the Potency is reported as inconclusive: 50.1 µM [inhibitor, partial curve].
For `CCc1cccc2c(C(CC(=O)NCCC(C)C)c3cccc(OC)c3OC)c[nH]c12` (configuration not stated), the Potency was active: 44.7 µM.
With `O=C(c1nc2sccn2c1-c1ccc(C(F)(F)F)cc1)N1CCCCC1` the Potency was inconclusive: 89.1 µM [inhibitor, single point].
With `O=C1CC2(CCN(Cc3cccc(OCc4ccccc4Cl)c3)CC2)CN1` the Potency was inconclusive: 50.1 µM [inhibitor, partial curve, poor fit].
With `COc1ccc(OC2CN(Cc3cccc4ccccc34)C2)cc1` the Potency was inconclusive: 112 µM [inhibitor, single point].
For `O=C(Cc1ccc(Cl)cc1)NC1CCN(c2cc(-c3ccc(F)cc3)[nH]n2)C1` (configuration not stated), the Potency was inconclusive: 50.1 µM [inhibitor, partial curve, poor fit].
In the case of `C1=C(c2nc(-c3cccc4[nH]ncc34)cc3c2ccn3Cc2cccnc2)CCOC1`, the Potency is reported as active: 89.1 µM.
With `O=C1Nc2ccccc2C2(CCN(C(=O)OCc3ccccc3)C2)O1` (configuration not stated) the Potency was inconclusive: 100 µM [inhibitor, single point].
In the case of `O=C(NC1CCN(c2nccc(Nc3ccccc3F)n2)CC1)C1CC1`, the Potency is reported as inconclusive: 56.2 µM [inhibitor, partial curve, poor fit].
With `Cc1ccc(-c2cc(C(=O)O)n(C)c2)cc1` the Potency was “inactive”.
With `Cc1nn2c(c1-c1cccnc1N1CCOCC1)N(CCCc1ccccc1)CCC2` the Potency was active: 50.1 µM.
For `O=C1CCCN1CCCN1C(=O)[C@@H]2C[C@@H](O)CN2C2(CN(C3Cc4ccccc4C3)C2)C1=O`, the Potency was “inactive”.
With `O=C(c1cccc(Cl)c1)N1CCC(n2c(=O)[nH]c3ccccc32)CC1` the Potency was inconclusive: 56.2 µM [inhibitor, partial curve, poor fit].
For `O=C(NCCc1ccccc1F)c1ccc2oc(-c3cccnc3)nc2c1`, the Potency was “inactive”.
With `COc1ccc(C(=O)N2CCC3(CC2)C(=NC2CCCCC2)NC(=O)N3c2cc(F)cc(F)c2)cc1` the Potency was “inactive”.
In the case of `CNC(=O)c1cn2c(n1)CN([S+](=O)([O-])c1cccc(C(F)(F)F)c1)CC2`, the Potency is reported as “inactive”.
In the case of `O=C(c1cccc(-c2ncc[nH]2)c1)N1CCn2nc(Cc3ccccc3)cc2C1`, the Potency is reported as inconclusive: 44.7 µM [inhibitor, full curve, poor fit].
With `COc1ccccc1NC(=O)Nc1ccc(-c2nnc3n2CCCC3)cc1` the Potency was inconclusive: 89.1 µM [inhibitor, single point].
In the case of `COc1ccc(OCC(O)CN2CCC(=O)N(Cc3ccccc3)Cc3cc4c(cc32)OCO4)cc1` (configuration not stated), the Potency is reported as active: 44.7 µM.
With `COc1cccc(NC(=O)C2(C)CCc3cnc(N4CCOCC4)nc32)c1` (configuration not stated) the Potency was inconclusive: 89.1 µM [inhibitor, partial curve].
For `COc1ccc(-c2cn3cc(C(=O)N(C)C)nc3s2)cc1`, the Potency was inconclusive: 39.8 µM [inhibitor, partial curve, poor fit].
With `Cn1ncc2c(C(=O)Nc3ccc(F)cc3)cc(-c3ccccc3C(F)(F)F)nc21` the Potency was active: 28.2 µM.
With `COc1cccc(-c2cccc(C(=O)N3CCCC3C(=O)NCc3ccc(Cl)cc3)c2)c1` (configuration not stated) the Potency was inconclusive: 50.1 µM [inhibitor, partial curve, poor fit].
With `Cc1ccc(CN2CCc3ncc(C(=O)NCCOc4ccccc4)n3CC2)o1` the Potency was active: 50.1 µM.
In the case of `Fc1ccc(CN2C[C@@H](F)[C@@H](OCc3nc4ccccc4o3)C2)cc1`, the Potency is reported as inconclusive: 126 µM [inhibitor, single point].
